According to PubChem BioAssay AID485294 (National Center for Advancing Translational Sciences (NCATS), 2010):
Screen size: about 370,000 compounds; about 150 (0.041%) were called active. The inconclusive results got no clear call from the source; some entries with a clear call stand among them for comparison. The call rests on the fitted dose curve; in most records, active means well fitted inhibition curve with a large enough effect; inconclusive means small, poorly fitted or top-dose-only effect; inactive means flat fitted curve, though single readings scatter. No potency is given beside an inconclusive call; the fits are too rough.

Target: Beta-lactamase (Escherichia coli (strain K12)) (UniProt P00811)
Experiment: qHTS Inhibitors of AmpC Beta-Lactamase (assay with detergent); further: nearly all actives have a fitted effect of over 25% in size;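 on activity change, negative = inhibition: 0% = no-compound wells and -100% = no-enzyme wells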
Details: AmpC hydrolysis of nitrocefin, absorbance 480 nm, 0.01% Triton; activity change, negative = inhibition: at 114 µM (top of the series)
Experimental: NIH Molecular Libraries Probe Production Network [MLPCN] NIH Chemical Genomics Center [NCGC] Assay Provider: Professor Brian Shoichet, UCSF Assay Overview: This aggregation profiling approach exploits the sensitivity of aggregate formation to detergent. Inhibition of b-lactamase is measured in the presence and absence of 0.01% Triton X-100. This particular assay had the prescence of 0.01% Triton X-100. See Pubchem assay "Promiscuous and Specific Inhibitors of AmpC Beta-Lactamase (assay without detergent)" for related screen. Compounds that inhibit only in the absence of detergent are considered likely promiscuous aggregators. A screen of 1,030 compounds was performed in Brian Shoichet's lab in 96-well format. AmpC activity was measured by following the absorbance at 480 nm. Nitrocefin is a chromogenic substrate: while nitrocefin is yellow (lmax 390 nm), the product of its hydrolysis is red (lmax 486 nm, 17,000 M-1). AmpC beta lactamase was provided by Shoichet Lab, UCSF.
Buffer: 20 mM phosphate buffer, pH 7.0 Triton X-100: No Detergent screen: 0.0001%, Detergent screen: 0.01%. Reagents/Controls: Buffer in columns 3 and 4 as negative control (no enzyme). 5.3 nM AmpC in columns 1, 2, 5-48. Titration of UCSF compound 9 control (from 10 mM, then 1:2) pin-transferred to column 2. Column 1 is neutral (100% activity). Assay Steps: Six uL of reagents were dispensed to 1536-well Greiner black clear bottom plates. Compounds and controls (23 nL) were transferred via Kalypsys PinTool. The plates were incubated for 15 min at room temperature, and then 2 uL of 800 uM solution of nitrocefin was added to start the reaction. The plates were immediately transferred to and read every 20 seconds for 4 min on ViewLux (Perkin-Elmer) High-throughput CCD imager using 480 nm absorbance protocol. During dispense, reagent bottles were kept submerged into 4 deg C water bath. Keywords: NIH Roadmap, MLSCN, MLI, MLSMR, qHTS, NCGC, AmpC Beta-Lactamase, Aggregation
Potency means the concentration at half of the fitted maximal effect; tags describe the fitted curve by direction and shape.

Sequence of UniProt P00811 (P00811 whole entry, looked up): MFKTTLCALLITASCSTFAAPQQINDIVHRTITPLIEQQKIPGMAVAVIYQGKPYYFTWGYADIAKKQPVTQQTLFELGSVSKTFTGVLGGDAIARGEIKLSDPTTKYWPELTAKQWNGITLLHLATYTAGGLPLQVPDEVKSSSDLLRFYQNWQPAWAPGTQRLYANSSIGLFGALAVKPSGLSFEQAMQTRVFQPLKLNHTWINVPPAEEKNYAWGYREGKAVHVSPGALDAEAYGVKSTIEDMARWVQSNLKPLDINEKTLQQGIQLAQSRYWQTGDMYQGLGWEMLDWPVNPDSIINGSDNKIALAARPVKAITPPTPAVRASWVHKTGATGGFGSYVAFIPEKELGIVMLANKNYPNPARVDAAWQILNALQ

SMILES	Potency	activity change, negative = inhibition
CCN1CC=C2C(C#N)=C(N)C(C#N)(C#N)C(CCc3ccccc3)C2C1 (stereo not drawn)	inconclusive [inhibitor, partial curve, poor fit]	–
CCCCN(C)CCCNC(=O)CS(=O)Cc1nc(-c2ccc(OC)c(OC)c2)oc1C (stereo not drawn)	inconclusive [inhibitor, partial curve]	–
C/C(=N\NC(=O)c1ccc2c(c1)OCO2)c1ccc(O)cc1	–	inactive: 3.26%
COC(=O)c1nc(N)sc1-c1ccc(Cl)cc1	inconclusive [inhibitor, full curve]	–
COC(=O)c1ccc(NC(=O)CCc2nnc3ccc(N4CCC5(CC4)OCCO5)nn23)cc1	–	inactive: -6.61%
CC1(c2ccc(OC(F)F)cc2)NC(=O)N(CC(=O)c2ccc3c(c2)OCO3)C1=O (stereo not drawn)	inconclusive [inhibitor, full curve, poor fit]	–
CCOc1cc(C2CC(=O)N3CN(C4CCCCC4)CSC3=C2C#N)ccc1O (stereo not drawn)	inconclusive [inhibitor, full curve]	–
CCOC(=O)C1CCN(c2c(N3CCN(Cc4ccccc4)CC3)c(=O)c2=O)CC1	inconclusive [inhibitor, single point]	–
Cc1ccc(CNC(=O)[C@H](C)[C@H]2C[C@]2(C)[C@H](NC(=O)OCc2ccccc2)c2ccccc2)o1	inconclusive [inhibitor, partial curve, poor fit]	–
COC(=O)c1ccc2c(=O)n(CCN3CCOCC3)c(=S)[nH]c2c1	–	inactive: 0.285%
COc1cc2c(cc1OC)C(C)N(C(=O)c1cc3c(s1)-c1c(C)cccc1OC3)CC2 (stereo not drawn)	inconclusive [inhibitor, full curve, poor fit]	–
COc1ccc(CN(C(=O)Nc2ccccc2)c2ccccn2)cc1OC	–	inactive: 15%
CCCCC1(C)NC(=S)N2N1C(=S)NC2(C)CCCC (stereo not drawn)	–	inactive: 0.151%
Cc1cc(C)nc(NC(=S)Nc2ccc(F)cc2F)c1	inconclusive [inhibitor, full curve, poor fit]	–
Cn1c(=O)n(C)c2cc(C(=O)c3ccccc3)ccc21	inconclusive [inhibitor, full curve, poor fit]	–
CN(c1cccc(NC(=O)CN(c2cccc(F)c2)S(C)(=O)=O)c1)S(C)(=O)=O	inconclusive [inhibitor, full curve, poor fit]	–
CCOC(=O)C(NC(=O)c1ccccc1Cl)(Nc1sc2c(c1C(N)=O)CCC2)C(F)(F)F (stereo not drawn)	inconclusive [inhibitor, partial curve, poor fit]	–
O=C1CC(N2CCOCC2)C(=O)N1c1ccccc1Cl (stereo not drawn)	inconclusive [inhibitor, full curve, poor fit]	–
O=C(Nc1cccc(O)c1)c1cnn2cccnc12	–	inactive: 0.0865%
Cc1cccc(NC(=O)Cn2c(=O)n(CCc3c[nH]c4ccccc34)c(=O)c3cccnc32)c1	inconclusive [inhibitor, full curve]	–
Cc1ccc(C2c3[nH]c4ccccc4c3CCN2C(=O)c2ccc(N(C)C)cc2)cc1 (stereo not drawn)	–	inactive: 20%
CN1C2CCC1CC(OC(c1ccccc1)c1ccccc1)C2 (stereo not drawn)	inconclusive [inhibitor, partial curve]	–

SMILES	Potency	activity change, negative = inhibition
COc1ccc(Oc2ccc(-c3ccn[nH]3)cc2)cc1	–	inactive: 0.422%
Cc1ccc(OC(=O)c2ccc(Cl)c([N+](=O)[O-])c2)cn1	–	inactive: 2.55%
COc1ccccc1/C=C/C(=O)NCC(=O)N/N=C/c1ccccc1[N+](=O)[O-]	inconclusive [inhibitor, single point]	–
O=C(O)c1ccc(Nc2nc(-c3ccccc3)nc3ccccc23)cc1	–	inactive: -0.289%
COC1(c2cc(-c3ccccc3)nc(N)n2)CCCCC1	inconclusive [inhibitor, full curve, poor fit]	–
Cc1cccc(C)c1NC(=O)C(=O)NCCOc1ccc(Cl)cc1	inconclusive [inhibitor, full curve, poor fit]	–
CCCSc1nc2c(cnn2-c2ccc(Cl)cc2)c(=O)[nH]1	inconclusive [inhibitor, full curve, poor fit]	–
Cc1ccc(NC(=O)C(Nc2cccc(C)c2)c2ccccc2)cc1 (stereo not drawn)	inconclusive [inhibitor, partial curve, poor fit]	–
Cc1cc(NC(=O)Cn2nnc(-c3ccccc3N)n2)no1	inconclusive [inhibitor, single point]	–
COC(=O)N/N=C/c1ccc(-c2cccc(Cl)c2)o1	–	inactive: 1.68%
COc1cccc(NC(=O)c2sc3nc(C)c(C(=O)Nc4ccc(C)cc4C)c(-c4ccc(Br)cc4)c3c2N)c1	inconclusive [inhibitor, partial curve]	–
COc1ccc(N2CCN(C(=O)c3cc4c(=O)n(Cc5cccs5)ccc4nc3C)CC2)cc1	inconclusive [inhibitor, full curve, poor fit]	–
O=C(CSc1nnc(-c2ccccc2F)o1)OCc1ccccc1	inconclusive [inhibitor, full curve, poor fit]	–
Cc1ccc(NC(=O)CN2CCOCC2)cc1Cl	–	inactive: -11.7%
CCN(CC)C(=O)C(Sc1ccccc1)c1ccccc1 (stereo not drawn)	inconclusive [inhibitor, full curve]	–
CCCSP1(=S)NCCCO1 (stereo not drawn)	inconclusive [inhibitor, partial curve]	–
COc1cccc(-c2nc(CS(=O)(=O)CC(=O)NCCc3ccccc3)c(C)o2)c1	–	inactive: -8.65%
CCOP(=O)(c1ccccc1)c1nc(-c2ccccc2C)oc1NCc1ccccc1 (stereo not drawn)	inconclusive [inhibitor, partial curve]	–
COc1ccc(C(=O)c2c3ccccc3[n+]([O-])n2Cc2ccc(C(N)=O)cc2)cc1	inconclusive [inhibitor, full curve, poor fit]	–
Cc1ccc(C)c(N2CCN(C(=O)C3CCN(Cc4nc(-c5cccc(Cl)c5)oc4C)CC3)CC2)c1	–	inactive: 2.14%
O=C1NC(=O)N(c2ccc(Cl)cc2)C(=O)/C1=C\c1ccc(Sc2nc3ccccc3[nH]2)o1	–	inactive: -7.51%
